Source: PubChem BioAssay AID1347165 (National Center for Advancing Translational Sciences (NCATS), 2019)
“And” between values parts separate entries of the source, which are not always exact repeats. Identical values can stand only once. Hit rate of the full screen: of about 220,000 compounds, about 5,700 (2.6%) were called active. The inconclusive results got no clear call from the source; some entries with a clear call stand among them for comparison. Calls follow the shape of the dose curve; as a rule, active = well fitted inhibition curve with a large enough effect; inconclusive = small, poorly fitted or top-dose-only effect; inactive = no such curve, though single readings can be large or run the other way. Where the call is inconclusive, the potency comes from a doubtful curve fit.
Also: nearly all actives have a fitted effect of over 70% in size.
For activity change, negative = inhibition in this document: 0% is about no effect.
Potency is read from the fitted curve at half-maximal effect; tags tell the direction and shape of the fitted curve.

These molecules were tested against Lysine-specific demethylase 5B (Homo sapiens) (UniProt Q9UGL1) (assay: Primary screen for KDM5B Histone Demethylases FDH-coupled qHTS). Conditions: FDH-coupled NADH fluorescence (FDH is formaldehyde dehydrogenase); activity change, negative = inhibition: at 57.7 µM (top of the series) unless noted.
UniProt Q9UGL1, sequence (Q9UGL1 whole entry, looked up): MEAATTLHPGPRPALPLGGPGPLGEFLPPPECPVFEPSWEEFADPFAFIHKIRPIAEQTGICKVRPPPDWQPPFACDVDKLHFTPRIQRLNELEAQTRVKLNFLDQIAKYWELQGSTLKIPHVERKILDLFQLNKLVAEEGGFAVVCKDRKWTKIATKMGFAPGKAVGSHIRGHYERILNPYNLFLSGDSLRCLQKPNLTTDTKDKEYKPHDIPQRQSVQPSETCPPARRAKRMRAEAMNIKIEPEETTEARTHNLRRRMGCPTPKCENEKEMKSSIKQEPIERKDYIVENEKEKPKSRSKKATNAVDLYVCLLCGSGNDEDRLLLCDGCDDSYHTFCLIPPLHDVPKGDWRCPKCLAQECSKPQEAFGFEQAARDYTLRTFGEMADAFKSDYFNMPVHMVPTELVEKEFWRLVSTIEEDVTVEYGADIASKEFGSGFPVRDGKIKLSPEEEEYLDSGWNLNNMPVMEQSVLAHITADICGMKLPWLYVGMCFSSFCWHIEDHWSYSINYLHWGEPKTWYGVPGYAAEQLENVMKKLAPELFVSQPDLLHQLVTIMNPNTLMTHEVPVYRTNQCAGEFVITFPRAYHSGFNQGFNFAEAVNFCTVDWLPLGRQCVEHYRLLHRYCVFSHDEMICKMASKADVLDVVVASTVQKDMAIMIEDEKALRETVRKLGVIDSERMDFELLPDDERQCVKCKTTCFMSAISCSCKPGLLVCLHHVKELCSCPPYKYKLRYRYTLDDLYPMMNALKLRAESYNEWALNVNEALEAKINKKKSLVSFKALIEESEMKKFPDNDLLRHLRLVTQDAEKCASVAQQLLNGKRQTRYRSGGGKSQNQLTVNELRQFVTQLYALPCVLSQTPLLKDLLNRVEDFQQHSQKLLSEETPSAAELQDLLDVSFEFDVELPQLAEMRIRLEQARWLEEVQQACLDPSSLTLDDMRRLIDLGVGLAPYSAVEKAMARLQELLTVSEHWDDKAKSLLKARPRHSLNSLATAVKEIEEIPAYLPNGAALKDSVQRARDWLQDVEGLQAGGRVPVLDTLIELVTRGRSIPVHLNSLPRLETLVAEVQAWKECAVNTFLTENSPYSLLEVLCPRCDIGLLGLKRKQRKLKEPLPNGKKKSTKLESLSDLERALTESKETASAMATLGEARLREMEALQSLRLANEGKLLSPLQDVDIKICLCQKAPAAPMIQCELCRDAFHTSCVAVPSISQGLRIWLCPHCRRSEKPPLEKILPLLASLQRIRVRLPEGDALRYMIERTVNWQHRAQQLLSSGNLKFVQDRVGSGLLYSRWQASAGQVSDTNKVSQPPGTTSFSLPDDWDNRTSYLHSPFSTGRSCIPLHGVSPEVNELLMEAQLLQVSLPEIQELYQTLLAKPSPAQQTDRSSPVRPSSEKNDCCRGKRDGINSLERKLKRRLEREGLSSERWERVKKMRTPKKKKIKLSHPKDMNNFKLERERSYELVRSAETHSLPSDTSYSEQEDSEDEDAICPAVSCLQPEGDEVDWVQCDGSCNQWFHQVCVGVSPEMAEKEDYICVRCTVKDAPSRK
How it was run: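 Measured: NADH fluorescence change, 30 min, RT. System: KDM5BΔAP 200 nM final, H3K4me3 peptide, α-KG, Fe(II), ascorbate, NAD⁺ plus FDH, pH 7.5 HEPES. Compounds: titrated, 10 min pre-incubation with enzyme.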
For `COc1ccccc1/C=C/CN1CCNC(=O)C1CC(=O)NCc1ccon1` (configuration not stated), the Potency was inconclusive: 22.4 µM [inhibitor, single point]. `O=C(Cn1nnnc1-c1ccc(Br)cc1)N1CCCCC1` was tested, and the Potency was inconclusive: 39.8 µM [inhibitor, single point]. In the case of `Nc1nc(CN2CCN(C(=O)c3cc(C(F)(F)F)cc(C(F)(F)F)c3)CC2)nc2ccccc12`, the “activity change, negative = inhibition” value is reported as inactive: -0.434%. For `COc1cc(OC)cc(N2C(=O)[C@@H]3C[C@@H](NC(=O)c4ccncc4)CCN3C2=O)c1`, the Potency was inconclusive: 35.5 µM [inhibitor, partial curve, poor fit]. In the case of `Cc1ccc(C2CC2C(=O)N(Cc2ccncc2)C2CC2)s1` (configuration not stated), the “activity change, negative = inhibition” value is reported as inactive: 26.7%. In the case of `CN(C(=O)Cn1c(=O)n(Cc2ccc(C(=O)NCc3ccc4c(c3)OCO4)cc2)c(=O)c2ccccc21)c1ccccc1`, the Potency is reported as inconclusive: 31.6 µM [inhibitor, partial curve, poor fit]. With `Cn1nnnc1C1CCCN(C(=O)Cc2ccccc2)C1` (configuration not stated) the Potency was inconclusive: 20 µM [inhibitor, partial curve]. With `N#Cc1nc(COc2cccc(Cl)c2)oc1N1CCCCCC1` the “activity change, negative = inhibition” value was inactive: -28.2%. With `CC(C)N(Cc1cnn(C)c1)S(=O)(=O)c1ccc(Cl)cc1F` the “activity change, negative = inhibition” value was inactive: -7.98%. `COc1ccc2nc(SCC(=O)N3N=C(c4cccs4)CC3c3ccco3)[nH]c2c1` (configuration not stated) was tested, and the Potency was inconclusive: 31.6 µM [inhibitor, partial curve, poor fit]. `CN(C)c1ccc(C(=O)N2Cc3[nH]cnc3CC2C(=O)O)cn1` (configuration not stated) was tested, and the Potency was inconclusive: 35.5 µM [inhibitor, partial curve, poor fit]. `CC(=O)N1CCC(N2CC[C@@H](CO)N(C)c3ncccc3C2)CC1` was tested, and the Potency was active: 35.5 µM. In the case of `CN(CC(=O)Nc1cc2[nH]c(=O)[nH]c2cc1Br)Cc1ccccc1N1CCCC1`, the “activity change, negative = inhibition” value is reported as inactive: -1.71%. `Nc1nccnc1C(=O)NCc1cccnc1-n1cncn1` was tested, and the Potency was inconclusive: 8.91 µM [inhibitor, full curve, poor fit]. With `O=C(CCC1CCCCC1)Nc1ccc(I)cc1` the “activity change, negative = inhibition” value was inactive: 15.2%. In the case of `Cc1ccc(C(=O)COC(=O)C2C3CCC(C3)C2C(=O)OCC(=O)c2ccc(C)c(C)c2)cc1C` (configuration not stated), the “activity change, negative = inhibition” value is reported as inactive: 27.5%. With `COCC1CN(C)CC12CCN(Cc1ccc(OC)c(Cn3ccnc3)c1)CC2` (configuration not stated) the Potency was inconclusive: 22.4 µM [inhibitor, partial curve]. `CC(=O)c1cccc(Nc2cc(C)nc3nc(-c4ccccc4C)nn23)c1` was tested, and the Potency was inconclusive: 5.62 µM [inhibitor, partial curve, poor fit]. In the case of `CC(=O)N1CCOc2ccc(CCC(=O)NC(C)Cn3ccc(C)n3)cc2C1` (configuration not stated), the “activity change, negative = inhibition” value is reported as inactive: -4.6%. For `Cc1ccc(OCCSc2nc3ccccc3n2CC(=O)N2CCCCC2)cc1C`, the activity change, negative = inhibition was inconclusive: -31.9% [inhibitor]. In the case of `COC(=O)c1ccccc1NC(=O)Cn1ncc2c(C)n(Cc3ccc(F)cc3)c(C)c2c1=O`, the Potency is reported as inconclusive: 39.8 µM [inhibitor, single point]. `c1cc2nc(C3CCNC3)[nH]c2cn1` (configuration not stated) was tested, and the Potency was inconclusive: 100 µM [inhibitor, partial curve, poor fit] and inconclusive: 31.6 µM [inhibitor, partial curve, poor fit]. In the case of `CN(CC(=O)NC(=O)NCc1ccccc1)Cc1ccc(C(F)(F)F)cc1`, the “activity change, negative = inhibition” value is reported as inactive: 4.3%. For `O=C(Nc1ccc(Cl)c(Cl)c1)C1CCCN(c2ncnc3nc[nH]c23)C1` (configuration not stated), the “activity change, negative = inhibition” value was inactive: -13.5%. `Nc1ccc(C(=O)NCc2cccnc2)cc1` was tested, and the “activity change, negative = inhibition” value was inactive: 7.87%. For `O=C(NC[C@H]1O[C@@H](CC(=O)N2CCN(c3ccc(F)cc3)CC2)[C@H](O)[C@@H]1O)C1CC1`, the Potency was inconclusive: 31.6 µM [inhibitor, single point]. For `COCC1CN(C2CCC2)CC12CCN(C(=O)c1cccc(OC)c1)CC2` (configuration not stated), the Potency was inconclusive: 25.1 µM [inhibitor, single point]. `COc1cc(F)ccc1-c1nc(-c2c(C)noc2C)cc2c1cc(C)n2C` was tested, and the “activity change, negative = inhibition” value was inactive: -2900% [at 86.2 µM]. With `O=C(c1cccc(Cl)c1)N1CCC(n2cc(-c3nc(-c4ccccc4)no3)nn2)C1` (configuration not stated) the Potency was inconclusive: 15.8 µM [inhibitor, partial curve, poor fit]. For `Cc1cc(C)cc(NC(=O)N2CCN(C)c3ncccc32)c1`, the Potency was inconclusive: 15.8 µM [inhibitor, partial curve, poor fit]. In the case of `Cc1cc(C)c([S+](=O)([O-])c2nnn3c2nc(NC2CC2)c2ccccc23)c(C)c1`, the “activity change, negative = inhibition” value is reported as inactive: -9.4% [at 115 µM]. In the case of `Cc1cc(C(=O)N2CC(F)(F)C[C@H]2c2nc(C3CC3)no2)on1`, the “activity change, negative = inhibition” value is reported as inactive: 8.32%. `COc1ccc2nc(C[C@@H]3C[C@@H](C(C)C)[C@H](CNC(=O)COCC(=O)O)C=C3C)[nH]c2c1` was tested, and the Potency was inconclusive: 31.6 µM [inhibitor, partial curve]. For `CC(=O)N1CCC([C@@H]2CN(Cc3ccc(Br)cc3)C[C@H]2CO)CC1`, the Potency was inconclusive: 20 µM [inhibitor, single point]. In the case of `CC(Sc1ccc2ccccc2n1)C(=O)Nc1sccc1C(N)=O` (configuration not stated), the “activity change, negative = inhibition” value is reported as inactive: -5.86%. `CCCCN(C)C(=O)c1ccc2c(c1)N(Cc1cccc(Cl)c1)C(=O)c1ccccc1S2=O` (configuration not stated) was tested, and the Potency was inconclusive: 5.01 µM [inhibitor, full curve, poor fit]. `COc1ccc(C(c2ccc(C)o2)c2ccc(C)o2)c(OC)c1` was tested, and the Potency was inconclusive: 39.8 µM [inhibitor, single point]. For `CC(Sc1nc(NC2CC2)c2ccccc2n1)C(=O)N(C)C` (configuration not stated), the Potency was inconclusive: 22.4 µM [inhibitor, single point]. `O=C(Nc1cccc(-c2nnc3n2CCCC3)c1)c1ccc(F)cc1` was tested, and the “activity change, negative = inhibition” value was inactive: -1.26%. `Cc1ccc(-c2nc(-c3ccc(C(C)(C)C)cc3)c(C)s2)cc1` was tested, and the “activity change, negative = inhibition” value was inactive: 6.12%. With `COCCNc1nc2c(S(=O)(=O)c3ccc(C)c(C)c3)nnn2c2ccccc12` the Potency was active: 79.4 µM. With `CN1CCN(S(=O)(=O)c2cc3cc(F)ccc3oc2=O)CC1` the Potency was inconclusive: 39.8 µM [inhibitor, single point]. In the case of `O=C(COc1ccccc1Cl)Nc1ccc2oc(-c3ccc(F)cc3)nc2c1`, the “activity change, negative = inhibition” value is reported as inactive: -8.67%. With `CN1CCCN(C(=O)CCC[C@H]2NC[C@@H]3C[C@H]2CN(Cc2ccccc2)C3)CC1` the “activity change, negative = inhibition” value was inactive: -19.4%. `CC(C)C[C@@H]1N[C@H](C(=O)NCc2ccccn2)Cc2c[nH]c3cccc1c23` was tested, and the Potency was inconclusive: 31.6 µM [inhibitor, partial curve, poor fit]. With `NC(=O)CNC(=O)[C@@]1(O)C[C@@H](O)[C@H](O)[C@@H](NC(=O)Nc2ccc(OC(F)(F)F)cc2)C1` the “activity change, negative = inhibition” value was inactive: -18.3%. With `CCCN(CCC)CCCNC(=O)c1nn(C)c2c1CS(=O)(=O)c1ccccc1-2` the Potency was inconclusive: 12.6 µM [inhibitor, partial curve, poor fit]. With `COc1cccc(CC2(CO)CCCN(Cc3nc(-c4cccs4)oc3C)C2)c1` (configuration not stated) the Potency was inconclusive: 17.8 µM [inhibitor, single point]. For `COc1cc(C)ccc1OCCSc1nnc(-c2cccs2)o1`, the activity change, negative = inhibition was inconclusive: -32.7% [inhibitor] [at 11.5 µM]. For `COCc1ccc(CNCc2cccnc2N2CCCC(O)C2)o1` (configuration not stated), the Potency was inconclusive: 35.5 µM [inhibitor, partial curve, poor fit]. `COc1cc2cc(C(=O)NCC(=O)Nc3ccc4c(c3)OCCO4)[nH]c2c(OC)c1OC` was tested, and the Potency was inconclusive: 22.4 µM [inhibitor, partial curve, poor fit]. In the case of `CCC(NC(=O)CN(C)Cc1ccc(C)o1)c1ccc(C)cc1` (configuration not stated), the “activity change, negative = inhibition” value is reported as inactive: -16.2%. In the case of `FC(F)(F)c1cccc(N2CCN(Cc3nnc(-c4ccccc4)o3)CC2)c1`, the Potency is reported as inconclusive: 44.7 µM [inhibitor, single point]. For `CC1CCN(S(=O)(=O)c2ccc3nc(N4CCN(c5ccccc5F)CC4)ccc3c2)CC1`, the Potency was inconclusive: 35.5 µM [inhibitor, single point]. With `N#Cc1ccc(S(=O)(=O)N2CCc3n[nH]c(=O)n3CC2)cc1` the Potency was inconclusive: 10 µM [inhibitor, partial curve, poor fit]. In the case of `COc1cccc(C(=O)N2CCN(c3oc(-c4ccccc4)nc3C#N)CC2)c1`, the Potency is reported as inconclusive: 14.1 µM [inhibitor, partial curve, poor fit]. In the case of `COCc1cn(C[C@H]2C[C@@H](NC(=O)c3cccnc3)[C@H](O)[C@@H]2O)nn1`, the Potency is reported as inconclusive: 20 µM [inhibitor, partial curve, poor fit]. For `COc1ccc2c(c1)Cc1sc(NC(=O)c3cccc(Cl)c3)nc1-2`, the Potency was inconclusive: 11.2 µM [inhibitor, partial curve, poor fit]. `Cc1ccc(-n2nc3n(c2=O)CCN(C(=O)c2cccc(Cl)c2)C3)cc1` was tested, and the “activity change, negative = inhibition” value was inactive: 6.34%. With `O=C(NC1CCN(c2nc3ncccc3o2)CC1)c1ccc(F)cc1` the Potency was active: 35.5 µM. In the case of `Cc1noc(C)c1[S+](=O)([O-])N1CCN(c2nc3ncccc3o2)CC1`, the Potency is reported as inconclusive: 20 µM [inhibitor, partial curve, poor fit]. With `COc1ccc(C(=O)NC2CCCc3c2[nH]c2ccccc32)cc1OC` (configuration not stated) the Potency was inconclusive: 28.2 µM [inhibitor, partial curve, poor fit]. `COc1ccc(-c2cc3[nH]ccc3c(C(=O)NCc3c(C)cc(C)[nH]c3=O)n2)cc1` was tested, and the Potency was inconclusive: 5.62 µM [inhibitor, partial curve, poor fit]. In the case of `Cc1cc(C(=O)NC(C)c2ccc(F)c(F)c2)c2cnn(C(C)C)c2n1` (configuration not stated), the Potency is reported as inconclusive: 28.2 µM [inhibitor, partial curve, poor fit]. `Cc1oc(-c2ccccc2)nc1CC(=O)Nc1ccccn1` was tested, and the “activity change, negative = inhibition” value was inactive: 3.99%. With `CCCOc1nccnc1NC1CCN(C(=O)c2cccnc2)CC1` the Potency was active: 28.2 µM. With `COc1cccc(Nc2ncc3c(n2)C(C)(C(=O)NCc2cccnc2)CC3)c1` (configuration not stated) the “activity change, negative = inhibition” value was inactive: -5.77% [at 86.2 µM].
